In a collection of fitness landscapes (doi:10.1016/j.celrep.2020.107928):
In all, about 81,000 sequences were measured (“one-hybrid fitness for binding parS DNA”: median about -0.17, highest 2% from about 0.51 on). The list shows a part of the results.

B1: Caulobacter ParB omega fusion; a variant is named by its letters at X, in order, B8GW30 (parent)
chain: MESVVVGEPGMSEGRRGLGRGLSALLGEVDAAPAQAPGEQLGGSREAPIEILQRNPDQPRRTFREEDLEDLSNSIREKGVLQPILVRPSPDTAGEYQIVAGERAWRAAQRAGLKTVPIMVRELDDLAVLEIGIIENVQRADLNVLEEALSYKVLMEKFERTQENIAQTIGKSXSHVANXMRLLXLPDEVQSYLVSGELTAXHARAIAAAADPVALAKQIIEGGLSVRETEALARKAPNLSAGKSKGGRPPRVKDTDTQALESDLSSVLGLDVSIDHRGSTGTLTITYATLEQLDDLCNRLTRGI

Variants of: B1
Experiment: one-hybrid fitness for binding parS DNA (scaled: cognate 1, non-cognate 0); higher = stronger binding
Conditions: with parS DNA site
Summary of the method: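 Fitness is the rescaled log change in variant-to-wild-type read ratio, measured by Illumina sequencing of plasmids before and after bacterial one-hybrid selection. The scale puts cognate at 1 and non-cognate at 0. Selection of Caulobacter ParB libraries, four specificity codons randomised, took place in E. coli USO with a HIS3 reporter, site 19 bp from the promoter, over 48 hours at 37°C on M9-minus-histidine with 0.1 mM IPTG and 5 mM 3-AT.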

one-hybrid fitness for binding parS DNA, 0.21:
GQHV

one-hybrid fitness for binding parS DNA, 1.01:
RAHG

one-hybrid fitness for binding parS DNA, 0.344:
RMWM

one-hybrid fitness for binding parS DNA, 0.256:
WCEG

one-hybrid fitness for binding parS DNA, 0.252:
RLNH

one-hybrid fitness for binding parS DNA, 1.03:
RVFS

one-hybrid fitness for binding parS DNA, 0.946:
RLQT

one-hybrid fitness for binding parS DNA, 0.273:
FACK

one-hybrid fitness for binding parS DNA, 0.44:
RFVA

one-hybrid fitness for binding parS DNA, 0.999:
RVQG

one-hybrid fitness for binding parS DNA, ≤ 0.2:
QWYG
YHSF
RKYP
PISA
SIYS
QFEL
WRPR
QNPT
GVES
NTAT
LFQT
VQRM
LYDS
LITT
QYRA
MGSC
SRGL
KLYT
LQKW
GCNG
SGIV
WLCT
PAKP
GDSR
FSDE
GEMR
SCFP
KRLM
QSTH
MILM
GKFS
WRPD
LSWC
GVPV
LSTA
PGPN
VANM
QNTA
CAHG
GMYC
VCST
IIES
DTQY
SGRD
DTVM
RPRA
LRSD
AHDL
FHKP
RVHP
LTSQ
WMHA
LQYR
SHST
QMAD
KVNL
SIPL
HGKA
LWKY
CSWR
EIQS
QWRH
TISG
SMAS
QDTW
AHHA
CYRN
FPVI
VQVR
PGWG
HPVA
KAYY
TNTA
MSSI
TVLW
YNIG
FETE
GRCS
RGAH
GRPC
QVKV
ILSL
TQRG
AHDR
PWYG
GKAS
YFKR
AHWT
ILWI
CKES
EFNC
SRAS
TCQI
LLCS
RMPQ
GVQR
SNTH
NCNG
HLPL
GRHF
APKR
VAPG
NAII
ILYT
LREK
DKNK
NELY
TRAA
FECS
PMYS
CITR
VVIL
VRSY
VKSL
TCMN
PSPF
KVPL
AVHL
KCRN
KLGK
MACR
WSYS
MLKK
PEPY
GLEA
MDKE
QYPH
DDGR
LSSK
FNTG
GLAS
LLQT
QALK
HFHS
SCGH
DRAM
QQPH
NGGC
YGWT
SSWW
FCSG
VLLH
PQIM
CNSM
MPVF
NSRI
VKLF
INEV
FMWV
DIHL
QQQE
MEFT
QVFC
TQSY
CWVA
FLHT
LPTQ
VGVI
KMWS
VIAC
MLWT
LAQF
RQSE
TWDG
PSHG
LVAP
EEGV
VYKM
QVVA
SMGR
QCIM
QTSM
QHLI
SPQF
CCAG
CNMK
SHHS
PQVR
RPYC
SKRY
NMYV
SKVR
FWTT
HCNT
LRIL
PPQL
EASF
PPQG
SMIK
AEVW
VSQC
QNFF
TKAY
LYKS
QFTV
NRKW
HTAK
RFMP
LEES
ANTR
VKWR
QNAC
DCQS
YKDS
WYSG
CSHT
MDVS
DLSI
KHRS
TPYC
YWGT
ILER
LHHS
FLCG
ATME
SIGA
VVHT
HWVS
LTWY
SSQP
TMKC
QRDM
CVIR
VSFC
MSND
VQGS
VAMV
LVQT
KWRE
WCIG
RYPL
SASL
NNWC
IYKT
LPNW
HVPK
CMYS
SSCH
PPND
GYAL
PLRW
MPQR
SVLK
HSMF
KRLI
WHDG
ESNP
TQMG
PHTE
YLPI
PLMV
MKLS
AGRC
LWYF
RAKD
QFHC
VNHL
VPQN
AMKL
YLSA
VKIY
VTNI
KDSF
HCVG
ARYG
DNWE
KLSF
QTEP
MDVR
KTNK
CHPI
IWLD
QHKK
QWVR
KAKV
SHTR
FLSD
WSSD
ACKG
RMWI
RKNH
APVG
ESCR
TVPR
PWMS
KVNR
WYPF
FCSW
SGSA
CSFF
LLLG
AMLD
EEHV
VAMR
QTMG

one-hybrid fitness for binding parS DNA, 0.207:
RMTD
